The record followed here is the supplement of paper PMC12217912.

B1: TEV protease; numbered along this chain (parent)
chain: MGESLFKGPRDYNPISSSICHLTNESDGHTTSLYGIGFGPFIITNKHLFRRNNGTLVVQSLHGVFKVKDTTTLQQHLVDGRDMIIIRMPKDFPPFPQKLKFREPQREERICLVTTNFQTKSMSSMVSDTSCTFPSGDGIFWKHWIQTKDGQCGSPLVSTRDGFIVGIHSASNFTNTNNYFTSVPKNFMELLTNQEAQQWVSGWRLNADSVLWGGHKVFMVKPEEPFQPVKEATQL

This assay covers variants of B1. Briefly: raw area under fraction-flipped curve 0-4 h after induction (AUC4h, not background-subtracted), DNA-recorder readout of cleavage of the substrate (dimensionless); higher = more cleavage of the substrate by the protease variant. The note with it: temperature: 34 °C; time window: 0-4 h after rhamnose induction.

The other results are listed elsewhere or left out. Sequences were assembled here from the parent chain. Inactive controls read about 0.05.
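Also: Bxb1 expression induced with 0.2% (w/v) L-rhamnose at OD600 near 0.5, cultures sampled hourly, flipped fraction per protease–substrate barcode pair counted by paired-end Illumina sequencing.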

As for G138V, the “area with substrate EELYFQS” value amounted to 0.0659, the “area with substrate EGLYFQS” value worked out at 0.0741, the “area with substrate EILYFQS” value came out at 0.0997 and the “area with substrate EKLYFQS” value is 0.133. The “area with substrate EMLYFQS” value is 0.113, the “area with substrate EQLYFQS” value was 0.0864, the “area with substrate ERLYFQS” value came to 0.0738 and the “area with substrate ESLYFQS” value is 0.0858.
Take E189A: the “area with substrate EELYFQS” value is 0.0974, the “area with substrate EGLYFQS” value came to 0.0941, the “area with substrate EHLYFQS” value was 0.105 and the “area with substrate EKLYFQS” value is 0.104. Also, the “area with substrate ELLYFQS” value was found to be 0.0977, the “area with substrate EMLYFQS” value turned out to be 0.0863, the “area with substrate EQLYFQS” value came to 0.0906 and the “area with substrate ESLYFQS” value is 0.107.
As for T233R, the “area with substrate EELYFQS” value was determined as 0.111, the “area with substrate EFLYFQS” value was determined as 0.0884, the “area with substrate EILYFQS” value was found to be 0.127 and the “area with substrate ELLYFQS” value is 0.0824. For the same variant, the “area with substrate EMLYFQS” value was 0.121, the “area with substrate EPLYFQS” value is 0.113, the “area with substrate EQLYFQS” value came to 0.118 and the “area with substrate ESLYFQS” value turned out to be 0.118. The “area with substrate EVLYFQS” value is 0.0817, the “area with substrate EWLYFQS” value amounted to 0.144 and the “area with substrate EYLYFQS” value was found to be 0.105.
With S135P, the “area with substrate EELYFQS” value amounted to 0.0858, the “area with substrate EGLYFQS” value came to 0.091, the “area with substrate EILYFQS” value came to 0.075 and the “area with substrate EKLYFQS” value amounted to 0.0496. For the same variant, the “area with substrate ELLYFQS” value was 0.0779, the “area with substrate EMLYFQS” value is 0.0774, the “area with substrate EQLYFQS” value is 0.0732 and the “area with substrate ESLYFQS” value amounted to 0.0775. Besides, the “area with substrate EVLYFQS” value worked out at 0.0764 and the “area with substrate EYLYFQS” value is 0.0637.
For the variant Q198W, the “area with substrate EELYFQS” value turned out to be 0.117, the “area with substrate EFLYFQS” value was determined as 0.0577, the “area with substrate EGLYFQS” value is 0.0571 and the “area with substrate EHLYFQS” value turned out to be 0.0584. Also, the “area with substrate EILYFQS” value turned out to be 0.035, the “area with substrate EKLYFQS” value worked out at 0.0663, the “area with substrate EMLYFQS” value is 0.0839 and the “area with substrate EQLYFQS” value amounted to 0.0875. For the same variant, the “area with substrate ESLYFQS” value stood at 0.0943, the “area with substrate EVLYFQS” value is 0.0595, the “area with substrate EWLYFQS” value worked out at 0.0643 and the “area with substrate EYLYFQS” value turned out to be 0.0515.
Consider G162S, for which the “area with substrate EELYFQS” value was 0.111, the “area with substrate EHLYFQS” value came to 0.0912, the “area with substrate EILYFQS” value was found to be 0.0902 and the “area with substrate EQLYFQS” value was 0.101. In addition, the “area with substrate ERLYFQS” value worked out at 0.0976, the “area with substrate ESLYFQS” value turned out to be 0.103 and the “area with substrate EVLYFQS” value came out at 0.0821.
Consider T192F, for which the “area with substrate EELYFQS” value was 0.159, the “area with substrate EFLYFQS” value worked out at 0.215, the “area with substrate EILYFQS” value was found to be 0.101 and the “area with substrate EKLYFQS” value was determined as 0.0794. For the same variant, the “area with substrate EMLYFQS” value was 0.116, the “area with substrate EQLYFQS” value was 0.117, the “area with substrate ERLYFQS” value worked out at 0.0886 and the “area with substrate ESLYFQS” value came to 0.121. In addition, the “area with substrate EVLYFQS” value is 0.0837 and the “area with substrate EYLYFQS” value came to 0.0752.
As for G202H, the “area with substrate EELYFQS” value was determined as 0.0782, the “area with substrate EGLYFQS” value was 0.0662, the “area with substrate EILYFQS” value was 0.0539 and the “area with substrate EKLYFQS” value was 0.0905. For the same variant, the “area with substrate EPLYFQS” value stood at 0.0758, the “area with substrate ERLYFQS” value worked out at 0.0726, the “area with substrate ESLYFQS” value stood at 0.0384 and the “area with substrate ETLYFQS” value is 0.066. In addition, the “area with substrate EVLYFQS” value is 0.0582, the “area with substrate EWLYFQS” value was found to be 0.0926 and the “area with substrate EYLYFQS” value worked out at 0.0689.
Regarding Q194L, the “area with substrate EELYFQS” value was 0.103, the “area with substrate EFLYFQS” value amounted to 0.0718, the “area with substrate EGLYFQS” value came out at 0.0943 and the “area with substrate ELLYFQS” value was 0.0854. In addition, the “area with substrate EMLYFQS” value was determined as 0.0878, the “area with substrate EPLYFQS” value is 0.13, the “area with substrate EQLYFQS” value stood at 0.114 and the “area with substrate ESLYFQS” value was found to be 0.0696. Besides, the “area with substrate ETLYFQS” value worked out at 0.101, the “area with substrate EVLYFQS” value was determined as 0.0958 and the “area with substrate EYLYFQS” value came to 0.0802.
As for H168C, the “area with substrate EFLYFQS” value came out at 0.0493, the “area with substrate EKLYFQS” value is 0.0527, the “area with substrate ELLYFQS” value came to 0.0537 and the “area with substrate EVLYFQS” value stood at 0.058. The “area with substrate EYLYFQS” value came to 0.0581.
K142P: the “area with substrate EELYFQS” value amounted to 0.0622, the “area with substrate EFLYFQS” value is 0.0602, the “area with substrate EGLYFQS” value was found to be 0.0694 and the “area with substrate EHLYFQS” value is 0.0697. Also, the “area with substrate EILYFQS” value is 0.0741, the “area with substrate EKLYFQS” value turned out to be 0.0747, the “area with substrate ELLYFQS” value was 0.0698 and the “area with substrate EMLYFQS” value was found to be 0.0845. For the same variant, the “area with substrate EQLYFQS” value was determined as 0.0818, the “area with substrate ERLYFQS” value is 0.0596, the “area with substrate ESLYFQS” value worked out at 0.0746 and the “area with substrate EWLYFQS” value was found to be 0.0608. The “area with substrate EYLYFQS” value came out at 0.0847.
As to G136Y, the “area with substrate EELYFQS” value came out at 0.123, the “area with substrate EHLYFQS” value was 0.134, the “area with substrate EILYFQS” value was determined as 0.0915 and the “area with substrate EKLYFQS” value is 0.108. The “area with substrate EPLYFQS” value worked out at 0.141, the “area with substrate EQLYFQS” value worked out at 0.099, the “area with substrate ERLYFQS” value was 0.115 and the “area with substrate ESLYFQS” value was 0.115. Moreover, the “area with substrate ETLYFQS” value was 0.102.
Take S154M: the “area with substrate EELYFQS” value was found to be 0.116, the “area with substrate EGLYFQS” value worked out at 0.0872, the “area with substrate EILYFQS” value came to 0.106 and the “area with substrate EKLYFQS” value came out at 0.0899. In addition, the “area with substrate EMLYFQS” value was determined as 0.111, the “area with substrate EQLYFQS” value was determined as 0.102, the “area with substrate ERLYFQS” value was 0.104 and the “area with substrate ESLYFQS” value turned out to be 0.0933. Also, the “area with substrate EVLYFQS” value was 0.0958.
